Experimental data as given in the supplement of paper PMC4967469.
The IC50 comes from the fitted curve, where viability falls to half of the control; fits outside the tested doses are given as limits. For AUC the same curve is integrated over the 256-fold range of doses and scaled to a fraction: 1 means no effect, lower means more sensitive. For part of these data: A top dose marked as inferred comes from the curve model; the source does not state it.

Tests used:
Test in all cases: Viability of human cancer cell lines after 72 h of drug (GDSC screen)
QL-XI-92 = compound: C=CC(=O)Nc1cc(NC(=O)c2ccc(C)c(NC(=O)c3ccno3)c2)cc(C(F)(F)F)c1 [QL-XI-92]; details: top dose 10.24 µM; top dose inferred
Method: (§1)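 Human cancer cell lines in 384-well plates, medium with 10% serum, drug for 72 h over a 256-fold dose range (nine 2-fold or five 4-fold steps up to the top dose). Adherent lines were fixed and stained with the nucleic acid dye Syto60, suspension lines read with resazurin; signal relative to control wells, capped at 0 and 100%. One two-parameter sigmoid per drug and line, fitted in a mixed model over all curves with the slope shared within a line.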

Vinorelbine = compound: CCC1=C[C@@H]2CN(C1)Cc1c([nH]c3ccccc13)[C@@](C(=O)OC)(c1cc3c(cc1OC)N(C)[C@H]1[C@@](O)(C(=O)OC)[C@H](OC(C)=O)[C@]4(CC)C=CCN5CC[C@]31[C@@H]54)C2 [Vinorelbine]; details: top dose 0.064 µM; top dose inferred
Method: as §1

AG-014699 = compound: CNCc1ccc(-c2[nH]c3cc(F)cc4c3c2CCNC4=O)cc1 [AG-014699]; details: top dose 5 µM; top dose inferred
Method: as §1

XL-184 = compound: COc1cc2nccc(Oc3ccc(NC(=O)C4(C(=O)Nc5ccc(F)cc5)CC4)cc3)c2cc1OC [XL-184]; details: top dose 5.12 µM; top dose inferred
Method: as §1

WHI-P97 = compound: COc1cc2ncnc(Nc3cc(Br)c(O)c(Br)c3)c2cc1OC [WHI-P97]; details: top dose 10.24 µM; top dose inferred
Method: as §1

Gefitinib = compound: COc1cc2ncnc(Nc3ccc(F)c(Cl)c3)c2cc1OCCCN1CCOCC1 [Gefitinib]; details: top dose 0.5 µM
Method: as §1

Phenformin = compound: N=C(N)NC(=N)NCCc1ccccc1 [Phenformin]; details: top dose 4000 µM; top dose inferred
Method: as §1

EHT 1864 = compound: O=c1cc(CN2CCOCC2)occ1OCCCCCSc1ccnc2cc(C(F)(F)F)ccc12 [EHT 1864]; details: top dose 10 µM; top dose inferred
Method: as §1

NU-7441 = compound: O=c1cc(N2CCOCC2)oc2c(-c3cccc4c3sc3ccccc34)cccc12 [NU-7441]; details: top dose 2 µM; top dose inferred
Method: as §1

Cell Line	AUC (QL-XI-92)	IC50 (QL-XI-92)	AUC (Vinorelbine)	IC50 (Vinorelbine)	AUC (AG-014699)	IC50 (AG-014699)	AUC (XL-184)	IC50 (XL-184)	AUC (WHI-P97)	IC50 (WHI-P97)	AUC (Gefitinib)	IC50 (Gefitinib)	AUC (Phenformin)	IC50 (Phenformin)	AUC (EHT 1864)	IC50 (EHT 1864)	AUC (NU-7441)	IC50 (NU-7441)
HuP-T3 (pancreas, adherent)	0.934	> 10.2 µM	0.917	> 0.064 µM	0.977	> 5 µM	0.897	> 5.12 µM	0.925	> 10.2 µM	0.975	> 0.5 µM	0.68	897 µM	0.978	> 10 µM	0.954	> 2 µM
HuP-T4 (pancreas, adherent)	0.919	> 10.2 µM	0.782	0.0286 µM	0.959	> 5 µM	0.932	> 5.12 µM	0.884	> 10.2 µM	0.938	> 0.5 µM	0.564	377 µM	0.969	> 10 µM	0.964	> 2 µM
IGR-1 (melanoma, adherent)	0.985	> 10.2 µM	0.379	0.00195 µM	0.976	> 5 µM	0.943	> 5.12 µM	0.988	> 10.2 µM	0.984	> 0.5 µM	0.588	421 µM	0.901	> 10 µM	0.979	> 2 µM
IHH-4 (thyroid, semi-adherent)	0.947	> 10.2 µM	0.484	0.00364 µM	0.974	> 5 µM	0.992	> 5.12 µM	0.984	> 10.2 µM	0.993	> 0.5 µM	0.948	> 4000 µM	0.962	> 10 µM	0.955	> 2 µM
IPC-298 (melanoma, adherent)	0.98	> 10.2 µM	0.781	0.0261 µM	0.973	> 5 µM	0.955	> 5.12 µM	0.979	> 10.2 µM	0.987	> 0.5 µM	0.495	243 µM	0.946	> 10 µM	0.962	> 2 µM
JEG-3 (urogenital system, adherent)	0.991	> 10.2 µM	0.662	0.0108 µM	0.956	> 5 µM	0.991	> 5.12 µM	0.991	> 10.2 µM	0.985	> 0.5 µM	0.883	3550 µM	0.983	> 10 µM	0.986	> 2 µM
JHH-1 (liver, adherent)	0.955	> 10.2 µM	0.6	0.00771 µM	0.978	> 5 µM	0.947	> 5.12 µM	0.892	> 10.2 µM	0.762	0.194 µM	0.974	> 4000 µM	0.923	> 10 µM	0.9	> 2 µM
JHH-2 (liver, adherent)	0.95	> 10.2 µM	0.865	> 0.064 µM	0.979	> 5 µM	0.917	> 5.12 µM	0.954	> 10.2 µM	0.955	> 0.5 µM	0.962	> 4000 µM	0.902	> 10 µM	0.926	> 2 µM
JHH-7 (liver, adherent)	0.936	> 10.2 µM	0.58	0.00652 µM	0.969	> 5 µM	0.956	> 5.12 µM	0.976	> 10.2 µM	0.989	> 0.5 µM	0.953	> 4000 µM	0.906	> 10 µM	0.973	> 2 µM
JHU-011 (head and neck, adherent)	0.968	> 10.2 µM	0.443	0.0028 µM	0.96	> 5 µM	0.914	> 5.12 µM	0.941	> 10.2 µM	0.756	0.168 µM	0.838	2630 µM	0.929	> 10 µM	0.922	> 2 µM
JHU-022 (head and neck, adherent)	0.982	> 10.2 µM	0.968	> 0.064 µM	0.981	> 5 µM	0.981	> 5.12 µM	0.975	> 10.2 µM	0.745	0.195 µM	0.979	> 4000 µM	0.944	> 10 µM	0.94	> 2 µM
JIMT-1 (breast, adherent)	0.962	> 10.2 µM	0.527	0.00476 µM	0.984	> 5 µM	0.967	> 5.12 µM	0.96	> 10.2 µM	0.93	> 0.5 µM	0.812	2350 µM	0.962	> 10 µM	0.96	> 2 µM
JURL-MK1 (chronic myeloid leukaemia, suspension)	0.842	7.17 µM	0.722	0.0169 µM	0.987	> 5 µM	0.633	0.743 µM	0.931	> 10.2 µM	0.909	> 0.5 µM	0.831	2520 µM	0.907	> 10 µM	0.983	> 2 µM
K2 (melanoma, adherent)	0.976	> 10.2 µM	0.77	0.0316 µM	0.982	> 5 µM	0.942	> 5.12 µM	0.948	> 10.2 µM	0.982	> 0.5 µM	0.786	2300 µM	0.975	> 10 µM	0.981	> 2 µM
KMH-2 (thyroid, adherent)	0.851	6.55 µM	0.402	0.00222 µM	0.978	> 5 µM	0.984	> 5.12 µM	0.99	> 10.2 µM	0.971	> 0.5 µM	0.901	> 4000 µM	0.99	> 10 µM	0.935	> 2 µM
